Laboratory results taken from the antibiotic and cytotoxicity screens of Wong et al. (2023).
Some of the results follow.

system: S. aureus RN4220; test: growth inhibition call (relative growth <= 0.2); details: 50 µM

Row | SMILES | growth inhibition call
1 | COc1ccc(NC(=O)N(C)C[C@@H]2OCCCC[C@@H](C)Oc3ccc(NC(=O)c4ccncc4)cc3C(=O)N([C@@H](C)CO)C[C@H]2C)cc1 | inactive
2 | C[C@H](CO)N1C[C@H](C)[C@@H](CN(C)S(C)(=O)=O)Oc2ccc(NC(=O)Nc3ccc(F)cc3)cc2C1=O | inactive
3 | C[C@@H]1CN([C@@H](C)CO)C(=O)c2cc(NS(=O)(=O)c3cccs3)ccc2O[C@H]1CN(C)S(C)(=O)=O | inactive
4 | O=C(O)[C@H]1C2C(=O)N(C3CC3)C[C@]23C=C[C@H]1O3 (stereo not given in full) | inactive
5 | COc1ccc2c3c([nH]c2c1)[C@@H](CO)N(C[C@]13CN(C1)S(=O)(=O)C)C(=O)c1cnccn1 | inactive
6 | C[C@H](CO)N1C[C@H](C)[C@@H](CN(C)C(=O)C2CCCCC2)Oc2cc(C#CCN(C)C)ccc2S1(=O)=O | inactive
7 | CC(C)NC(=O)Nc1cccc2c1O[C@H](CN(C)S(=O)(=O)c1ccc(F)cc1)[C@H](C)CN([C@@H](C)CO)C2=O | inactive
8 | COCCOC(=O)N1C(=O)[C@@]2(c3cc(C#CC4(O)CCCCCC4)ccc31)[C@H](C(=O)NC[C@H](O)c1ccccc1)[C@H]1C(=O)O[C@H](c3ccccc3)[C@H](c3ccccc3)N1[C@@H]2c1ccc(OCCO)cc1 | inactive
9 | NC(=O)c1cnccn1 | inactive
10 | Cc1ccc2nc(-c3ccco3)[nH]c2c1 | inactive
11 | CC(C)NC(=O)N(C)C[C@@H]1OCCCC[C@H](C)Oc2ccc(NS(C)(=O)=O)cc2C(=O)N([C@@H](C)CO)C[C@@H]1C | inactive
12 | CCOC(=O)CNC(=O)c1cnn2cccnc12 | inactive
13 | Cc1ccc(S(=O)(=O)N(C)C[C@H]2OCCCC[C@@H](C)Oc3ccc(NC(=O)C4CCCCC4)cc3C(=O)N([C@H](C)CO)C[C@H]2C)cc1 | inactive
14 | C[C@H](CO)N1C[C@H](C)[C@@H](CN(C)S(=O)(=O)c2ccccc2)Oc2ccc(NC(=O)C3CC3)cc2C1=O | inactive
15 | O=C(O)CCc1nc2ccccc2[nH]c1=O | inactive
16 | CCOC(=O)CCC(=O)OC1C(OC2C(C)C(OC3CC(C)(OC)C(O)C(C)O3)C(C)C(=O)OC(CC)C(C)(O)C(O)C(C)C(=O)C(C)CC2(C)O)OC(C)CC1N(C)C (stereo not given) | active
17 | C[C@H](CO)N1C[C@H](C)[C@@H](CN(C)C(=O)Nc2ccc(C(F)(F)F)cc2)Oc2ccc(NC(=O)Nc3ccc(C(F)(F)F)cc3)cc2CC1=O | inactive
18 | COc1ccc(S(=O)(=O)N(C)C[C@@H]2Oc3c(NC(=O)c4cc(C)nn4C)cccc3C(=O)N([C@@H](C)CO)C[C@H]2C)cc1 | inactive
19 | C[C@H](CO)N1C[C@H](C)[C@@H](CN(C)Cc2ccccc2)OCCCC[C@H](C)Oc2ccc(NS(=O)(=O)c3cccs3)cc2C1=O | inactive
20 | Cc1noc(C)c1NC(=O)N(C)C[C@@H]1Oc2c(NS(=O)(=O)c3c(C)noc3C)cccc2C(=O)N([C@@H](C)CO)C[C@@H]1C | inactive

Row | SMILES | growth inhibition call
21 | Cc1noc(C)c1NC(=O)Nc1ccc2c(c1)C(=O)N([C@@H](C)CO)C[C@H](C)[C@@H](CN(C)Cc1ccc(C(=O)O)cc1)OCCCC[C@H](C)O2 | inactive
22 | C[C@H](CO)N1C[C@H](C)[C@@H](CN(C)C(=O)Nc2cccc3ccccc23)OCCCC[C@H](C)Oc2ccc(NC(=O)Nc3cccc4ccccc34)cc2C1=O | inactive
23 | C[C@H](CO)N1C[C@H](C)[C@@H](CN(C)C)Oc2ccc(NS(=O)(=O)c3cn(C)cn3)cc2CC1=O | inactive
24 | C[C@@H]1CCCCO[C@H](CN(C)C(=O)Nc2ccc3c(c2)OCO3)[C@H](C)CN([C@H](C)CO)C(=O)c2cc(NC(=O)Nc3ccc(C(F)(F)F)cc3)ccc2O1 | inactive
25 | CCC(C)CCCCC(=O)NC(CCN)C(=O)NC(C(=O)NC(CCN)C(=O)NC1CCNC(=O)C(C(C)O)NC(=O)C(CCN)NC(=O)C(CCN)NC(=O)C(CC(C)C)NC(=O)C(Cc2ccccc2)NC(=O)C(CCN)NC1=O)C(C)O.O=S(=O)(O)O (stereo not given) | active
26 | Cc1cccc(S(=O)(=O)N2C[C@H](O)COC[C@@H]3O[C@@H](CC(=O)NCc4ccncn4)CC[C@H]32)c1 | inactive
27 | O=c1[nH]c2ccccc2c(=O)n1CCCO | inactive
28 | COC(=O)Cc1c(C)[nH]c2ncnn2c1=O | inactive
29 | Cc1cc(C(=O)Nc2cccc3c2O[C@H](CN(C)Cc2ccc(Oc4ccccc4)cc2)[C@@H](C)CN([C@@H](C)CO)C3=O)n(C)n1 | inactive
30 | Cc1cc(C)c(C#N)c(=O)[nH]1 | inactive
31 | C[C@@H]1CCCCO[C@@H](CN(C)S(C)(=O)=O)[C@@H](C)CN([C@H](C)CO)C(=O)c2cc(NC(=O)CCCN(C)C)ccc2O1 | inactive
32 | Cc1cc(C(=O)Nc2cccc3c2O[C@H](CN(C)C(=O)Nc2ccc4c(c2)OCO4)[C@H](C)CN([C@@H](C)CO)C3=O)n(C)n1 | inactive
33 | COc1cccc(NC(=O)N(C)C[C@@H]2Oc3ncc(C#Cc4ccncc4)cc3C(=O)N([C@H](C)CO)C[C@@H]2C)c1 | inactive
34 | CCCN(C)C[C@@H]1OCCCC[C@@H](C)Oc2ccc(NC(=O)C3CCCCC3)cc2C(=O)N([C@@H](C)CO)C[C@@H]1C | inactive
35 | C[C@@H]1CCCCO[C@H](CN(C)C(=O)c2ccccc2)[C@@H](C)CN([C@@H](C)CO)C(=O)c2cc(NC(=O)Cc3ccccc3)ccc2O1 | inactive
36 | C[C@@H]1CN([C@@H](C)CO)C(=O)c2cc(NC(=O)Cn3cnnn3)ccc2O[C@H]1CN(C)Cc1ccc(C(F)(F)F)cc1 | inactive
37 | CC(=O)O[C@H](C)[C@H]1[C@@](C)(O)CC(=O)[C@]23O[C@]12C(=O)c1ccc(-c2ccc4c(c2O)[C@@H](O)[C@@]25O[C@]2(C4=O)[C@@H]([C@@H](C)OC(C)=O)[C@@](C)(O)CC5=O)c(O)c1[C@H]3O | inactive
38 | C[C@@H](O)c1cccc(C(F)(F)F)c1 | inactive
39 | O=C(C[C@H]1CC[C@@H]2[C@H](COC[C@@H](O)CN2S(=O)(=O)c2cccc(F)c2)O1)NCCCN1CCOCC1 | inactive
40 | CCCNC(=O)C[C@H]1CC[C@H]2[C@@H](COc3ccc(NC(=O)c4ccc5c(c4)OCO5)cc3C(=O)N2C)O1 | inactive
